About 2,200 (0.71%) of roughly 310,000 compounds showed an effect of 50% or more. The effect is printed as a negative number. The list shows a part of the results.
molecular target: human ether-à-go-go-related gene (hERG) potassium channel (human, UniProt Q12809); experiment: primary screen, population patch clamp on CHO cells stably expressing hERG
Sequence (Q12809 whole entry, looked up): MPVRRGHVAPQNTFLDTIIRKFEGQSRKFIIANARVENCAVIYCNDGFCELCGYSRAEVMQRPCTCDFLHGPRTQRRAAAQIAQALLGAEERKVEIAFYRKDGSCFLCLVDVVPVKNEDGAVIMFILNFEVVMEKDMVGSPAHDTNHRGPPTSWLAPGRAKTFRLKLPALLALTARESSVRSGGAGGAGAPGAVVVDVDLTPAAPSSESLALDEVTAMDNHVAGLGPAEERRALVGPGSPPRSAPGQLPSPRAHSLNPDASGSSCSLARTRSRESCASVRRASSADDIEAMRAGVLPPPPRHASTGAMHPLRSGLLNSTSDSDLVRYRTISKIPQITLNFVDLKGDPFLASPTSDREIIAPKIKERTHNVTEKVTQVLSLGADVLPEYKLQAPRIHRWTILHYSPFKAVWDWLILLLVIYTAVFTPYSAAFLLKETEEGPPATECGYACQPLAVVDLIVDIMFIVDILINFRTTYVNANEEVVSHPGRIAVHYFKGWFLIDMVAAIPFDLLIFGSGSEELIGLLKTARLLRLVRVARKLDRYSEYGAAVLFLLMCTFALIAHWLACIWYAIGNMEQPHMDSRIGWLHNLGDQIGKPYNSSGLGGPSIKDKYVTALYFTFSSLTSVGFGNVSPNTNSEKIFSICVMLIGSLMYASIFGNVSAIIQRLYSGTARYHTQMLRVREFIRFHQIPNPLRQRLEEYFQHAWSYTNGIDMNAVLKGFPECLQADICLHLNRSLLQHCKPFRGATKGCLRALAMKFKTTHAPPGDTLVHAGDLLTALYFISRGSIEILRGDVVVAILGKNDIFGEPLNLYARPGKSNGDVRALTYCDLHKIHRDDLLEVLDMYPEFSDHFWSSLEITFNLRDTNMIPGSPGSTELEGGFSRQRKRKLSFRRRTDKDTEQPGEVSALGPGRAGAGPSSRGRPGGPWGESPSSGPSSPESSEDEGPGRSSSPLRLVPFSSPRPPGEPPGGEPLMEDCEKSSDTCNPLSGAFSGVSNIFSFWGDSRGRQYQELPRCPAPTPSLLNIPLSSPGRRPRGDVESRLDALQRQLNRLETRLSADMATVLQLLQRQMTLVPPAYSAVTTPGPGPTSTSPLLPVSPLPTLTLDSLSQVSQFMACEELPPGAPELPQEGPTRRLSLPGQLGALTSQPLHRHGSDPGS

SMILES	hERG current change (%, negative = inhibition) at 1uM [%]
O=C(CCC1CCCC1)NCCS(=O)(=O)N1CCN(c2ccccc2)CC1	7.89
COCc1nnc(NC(=O)C2CC(=O)N(c3ccc(C)c(Cl)c3)C2)s1 (centres unmarked)	-0.0041
CCC(C)NC(=S)N1CCN(C(c2ccccc2)c2ccccc2)CC1 (centres unmarked)	-8.79
CCn1c(=NC(=O)CSC(C)=O)sc2cc(OC)ccc21	1.6
CC(C)C(=O)NC(NC(=O)C(C)C)c1ccc([N+](=O)[O-])cc1	5.88
O=C(CNC(=O)c1cccc(Br)c1)N/N=C/c1cccnc1	5.78
O=C(COC(=O)c1cccc(NS(=O)(=O)/C=C/c2ccccc2)c1)Nc1ccccc1OC(F)F	8.11
Cc1ccc(-n2c(SCC(=O)Nc3cc(C)on3)nc3ccccc3c2=O)cc1	7.51
CCc1nnc(NC(=O)CSc2nnc(CNc3cccc(C)c3)n2-c2ccccc2)s1	3.8
Cc1cc([N+](=O)[O-])ccc1NC(=O)c1sc2ncn(CC(=O)N3CCOCC3)c(=O)c2c1C	10.3
COc1ccccc1OCCCn1c(=O)sc2ccccc21	6.23
CN1CCN(S(=O)(=O)c2ccc(Br)c3nsnc23)CC1	10.5
CCOC(=O)N1CCN(S(=O)(=O)c2ccc(C(=O)Nc3nnc(C4CC4)o3)cc2)CC1	-1.38
O=c1cc(Cl)[nH]c(=O)n1CCNc1ncc(C(F)(F)F)cc1Cl	-3.66
CN1CCc2c(sc3nc(NN)n(Cc4ccccc4)c(=O)c23)C1	10.8
CCCCN(C)CC(O)Cn1cc(/C=C/C(=O)c2cccs2)c2ccccc21 (centres unmarked)	7.26
CCc1ccc(NC(=O)COC(=O)C2(c3ccc(Cl)cc3)CCCC2)cc1	11
COc1cccc(OC)c1CNC(=O)CCSCc1ccccc1F	7.24
Cc1ccc(-c2noc(CCC(=O)Nc3cc(C)ccn3)n2)cc1	9.61
CC(C)Cn1c(/C=C/c2ccco2)nc2ccccc21	13.6
O=S(=O)(Nc1cccc(-c2cn3c(n2)SCC3)c1)c1ccc(F)cc1F	6.34
CCOC(=O)C(C)Sc1ncnc2nc[nH]c12 (centres unmarked)	2.28

SMILES	hERG current change (%, negative = inhibition) at 1uM [%]
CSc1ncccc1C(=O)N1CCN(S(=O)(=O)c2ccccc2)CC1	20.3
O=c1oc2cc(Oc3c([N+](=O)[O-])cc(C(F)(F)F)cc3[N+](=O)[O-])ccc2c2c1CCCC2	7.02
O=C(Nc1ccc2c(c1)Cc1ccccc1-2)c1ccco1	4.54
O=C1c2ccccc2C(=O)N1Cc1cc(-c2ccccc2)no1	11.6
Cc1ccc(SCCCn2cnc3ccccc3c2=O)cc1	8.47
Cl.OC(CNC1CCCC1)COc1ccc(-c2ccccc2)cc1 (centres unmarked)	9.19
Cc1ccc2nc(C)cc(N/N=C/c3ccccc3O)c2c1	8.77
Cc1ccc(OCCNC(=O)c2ccc(C)o2)cc1	8.42
CCOC(=O)N1CCN(C(=O)c2cccc(N3C(=O)NC4CC3(C)Oc3ccccc34)c2)CC1 (centres unmarked)	13
CC(=O)OCC[C@H](NS(=O)(=O)OCC(Cl)(Cl)Cl)c1ccccc1	11.9
Cc1cc(C)cc(OCC(=O)OCC(=O)c2ccc3c(c2)NC(=O)CO3)c1	12.2
COc1ccc(OCCNC(=O)c2cccc(Oc3ccc(C(F)(F)F)cc3[N+](=O)[O-])c2)cc1	3.75
CCN1CCN(c2ccc(S(=O)(=O)N3CCCCC3)cc2NC(=O)c2ccccc2)CC1	-15.6
CC1Cc2cc(/C=C3/SC(=S)NC3=O)ccc2O1 (centres unmarked)	9.84
CCCN(CC(=O)Nc1ccccc1OC)C(=O)c1cc(-c2cccs2)nn1-c1ccccc1	0.953
COc1ccc2c(c1)c(=O)oc1cc(OCC(=O)N3CCC(C)CC3)ccc12	8.26
O=C(CNCc1cccs1)Nc1ccc(N2CCCCCC2)cc1.O=C(O)C(=O)O	3.38
CCc1cc2c(=O)[nH]c(N3CCCC3)nc2s1	7.46
CC(C)(C)c1ccc(COc2ccsc2C(=O)O)cc1	5.85
CC(C)C1OC2c3cccc4cccc(c34)C2N1c1ccccc1 (centres unmarked)	18.8
Cc1cc(OCC(=O)NCCO)cc(C)c1Cl	8.17
CCOC(=O)c1cccc(Nc2ncnc3ccccc23)c1.Cl	2.2

— PMC4336329 (PLoS ONE, 2015)
